# Among all 310,000 compounds or so, about 2,200 (0.71%) showed an effect of 50% or more. Effects have a minus sign here. This is one part of the list.
# Target: human ether-à-go-go-related gene (hERG) potassium channel (human, UniProt Q12809)
# Assay: primary screen, population patch clamp on CHO cells stably expressing hERG
# Chain of human ether-à-go-go-related gene (hERG) potassium channel (Q12809 whole entry, looked up): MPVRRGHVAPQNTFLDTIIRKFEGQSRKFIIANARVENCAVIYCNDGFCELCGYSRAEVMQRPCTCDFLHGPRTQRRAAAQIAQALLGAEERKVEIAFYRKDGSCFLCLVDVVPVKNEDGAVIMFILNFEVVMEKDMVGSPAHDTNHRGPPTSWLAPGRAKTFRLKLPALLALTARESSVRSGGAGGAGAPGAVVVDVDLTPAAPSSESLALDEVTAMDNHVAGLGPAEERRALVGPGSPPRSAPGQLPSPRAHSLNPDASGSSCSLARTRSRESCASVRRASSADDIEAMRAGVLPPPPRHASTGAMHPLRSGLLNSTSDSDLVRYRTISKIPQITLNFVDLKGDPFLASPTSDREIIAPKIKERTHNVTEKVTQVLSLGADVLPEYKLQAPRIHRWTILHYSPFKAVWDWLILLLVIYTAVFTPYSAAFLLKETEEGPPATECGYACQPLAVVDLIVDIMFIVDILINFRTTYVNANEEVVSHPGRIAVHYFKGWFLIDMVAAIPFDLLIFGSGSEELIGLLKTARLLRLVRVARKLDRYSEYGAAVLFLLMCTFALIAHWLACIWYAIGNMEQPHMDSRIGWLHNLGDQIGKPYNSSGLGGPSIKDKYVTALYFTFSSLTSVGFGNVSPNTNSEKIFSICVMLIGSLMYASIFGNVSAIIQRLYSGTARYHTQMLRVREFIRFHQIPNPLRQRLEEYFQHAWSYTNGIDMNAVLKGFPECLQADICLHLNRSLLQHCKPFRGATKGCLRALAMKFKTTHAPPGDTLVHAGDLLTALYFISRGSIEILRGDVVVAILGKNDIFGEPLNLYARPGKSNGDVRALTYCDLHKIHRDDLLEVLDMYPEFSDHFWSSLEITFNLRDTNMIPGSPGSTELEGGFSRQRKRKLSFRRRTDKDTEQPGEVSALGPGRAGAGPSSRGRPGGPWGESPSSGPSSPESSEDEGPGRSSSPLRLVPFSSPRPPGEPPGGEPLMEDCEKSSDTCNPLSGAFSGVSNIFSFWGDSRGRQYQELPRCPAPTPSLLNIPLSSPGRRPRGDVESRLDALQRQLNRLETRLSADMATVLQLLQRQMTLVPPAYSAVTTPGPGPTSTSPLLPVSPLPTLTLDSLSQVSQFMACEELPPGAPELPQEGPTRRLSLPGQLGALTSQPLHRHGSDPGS
row,Compound,"hERG current change (%, negative = inhibition) at 1uM"
1,COc1cc(/C=N/NC(=O)c2cc(-c3ccccc3)nc3ccccc23)ccc1O,8.39%
2,COc1ccc(-c2nc(-c3cccnc3)no2)cc1,9.06%
3,COC(=O)c1sccc1NN1C(=O)c2ccccc2C1=O,13.1%
4,O=[N+]([O-])c1cccc(-c2n[nH]c(=S)n2Cc2ccccc2)c1,4.74%
5,CCOC(=O)N1CCC(N(CCN(C)C)C(=S)Nc2ccc(Oc3ccccc3)cc2)CC1,13.3%
6,COc1ccccc1C1OC(c2cccc([N+](=O)[O-])c2)=NN1C(C)=O (centres unmarked),-8.51%
7,Cc1onc(-c2ccccc2)c1CNC(=O)Nc1ccc(C(F)(F)F)cc1,13.8%
8,Cc1[nH]c(=O)[nH]c(=O)c1S(=O)(=O)N1CCCC(C(=O)N2CCN(c3cccc(C(F)(F)F)c3)CC2)C1 (centres unmarked),15.4%
9,COc1cccc(CN2CCCC(C(=O)c3ccc4c(c3)OCO4)C2)c1OC (centres unmarked),-25.3%
10,COc1cc(/C=C2/C(=O)NN(c3cccc(C)c3)C2=O)ccc1OC(=O)c1ccco1,11.3%
11,O=C(N/N=C/c1c(Cl)cccc1Cl)C(=O)NC1CC1,16.3%
12,Cc1c(Cl)c([N+](=O)[O-])nn1CC(=O)NC12CC3CC(CC(C3)C1)C2,7.91%
13,COc1ccc(C2=NOC(CN3C(=O)c4ccccc4S3(=O)=O)C2)cc1 (centres unmarked),-6.81%
14,CCOc1ccc2oc(C(=O)NC3CC(C)(C)NC(C)(C)C3)c(C)c2c1,13.8%
15,CCN(CC)S(=O)(=O)c1cccc(C(=O)Nc2cccnc2)c1,2.33%
16,Cc1ccc(NC(=O)CN2C(=O)C(=O)N(C3CCCC3)C2=O)cc1Cl,-2.48%
17,CCOC(=O)Cc1ccc2sc(-c3ccccc3)nc2c1,7.91%
18,O=C(NNc1nc2cc3c(cc2s1)OCCO3)c1ccc(F)cc1,3.54%
19,NC(=O)CCS(=O)(=O)c1ccc(Cl)cc1,-8.41%
20,CCC(Cc1ccccc1)n1c(=S)[nH]c2ccccc2c1=O (centres unmarked),0.335%
21,COc1cc(OC)cc(C(=O)NCCNC(=O)c2ccccc2)c1,6.93%
22,CCOc1nc(NCCN2CCOCC2)nc(NC(C)C)n1,0.245%

row,Compound,"hERG current change (%, negative = inhibition) at 1uM"
1,O=C(Nc1ccc(NC(=O)C2CCCN2C(=O)OCc2ccccc2)cc1)c1ccco1 (centres unmarked),10.6%
2,O=C(C1CCN(S(=O)(=O)c2cnc[nH]2)CC1)N1CCN(Cc2ccc3c(c2)OCO3)CC1,3.08%
3,Cc1c2c([n+]3n1CCC3)CC(C)(C)CC2=O.[Br-],22.7%
4,COc1ccc(C(=O)N2CCN(Cc3ccccc3[N+](=O)[O-])CC2)cc1.O=C(O)C(=O)O,-20.9%
5,CCOC(=O)CN1CC23C=CC(O2)C(C(=O)N2CCN(c4ccc(F)cc4)CC2)C3C1=O (centres unmarked),6.27%
6,O=C(C1=C(O)C(=O)N(CCc2ccccc2)C1c1ccncc1)c1cc2ccccc2o1 (centres unmarked),3.54%
7,CN(CCOC(=O)c1ccc2c(c1)OCO2)C(C)(C)C.Cl,6.18%
8,Nc1ccc(C(=O)N/N=C/c2cccc(Oc3ccccc3)c2)cc1,13.1%
9,CCOC(=O)c1oc2ccc(S(=O)(=O)n3nc(-c4ccc(C)cc4)cc3N)cc2c1C,7.43%
10,Nn1c(SCc2ccc([N+](=O)[O-])cc2)nc2ccccc2c1=O,14.4%
11,Cc1nc2ncnn2c(C)c1CCC(=O)NCc1ccccc1,-4.34%
12,CCC1(C)Cc2c(sc3c2c(=O)n(C)c2nnc(SCCc4ccccc4)n32)CO1 (centres unmarked),0.706%
13,O=C(O)c1ccc(Oc2ccc(S(=O)(=O)c3ccc(C(=O)O)c(C(=O)O)c3)cc2)cc1,11.8%
14,O=c1c2[nH]c3ccccc3c2ncn1C1CCCCC1,-2.89%
15,COc1ccccc1N(CC(=O)NCc1ccco1)C(=O)CCC(=O)Nc1ccccn1,7.79%
16,CN1C(=O)NC(c2ccccc2)(C(F)(F)F)S/C1=C(/C#N)c1nnc(N2CCOCC2)n1-c1ccccc1 (centres unmarked),-9.45%
17,CC(=O)C1=C(C)N2CCN=C2S1,9.59%
18,NC(=O)c1ccsc1NC(=O)COC(=O)CNC(=O)c1cccc([N+](=O)[O-])c1,7.42%
19,CCOC(=O)NC(=O)COC(=O)c1ccc(O)cc1,8.16%
20,CN(c1ccc(C(=O)N2CCCCC2)cc1)S(C)(=O)=O,19.2%
21,CCOc1ccc(/C=C2\SC(N3CCCCC3)=NC2=O)cc1,-10%
22,Cc1c(C(c2ccc(C(=O)O)cc2)c2c(C)n(C)n(-c3ccccc3)c2=O)c(=O)n(-c2ccccc2)n1C.Cl,10.3%

row,Compound,"hERG current change (%, negative = inhibition) at 1uM"
1,COc1ccc2c(c1OC)C(=O)N(c1ccc(F)cc1)C2,7.42%
2,CCC1(C)CC(C(CC(=O)O)c2ccc(C)cc2)CCO1 (centres unmarked),13.1%
3,O=C(Nc1ccccc1N1CCOCC1)C1=COCCO1,13.2%
4,O=S(=O)(/N=C/c1c(O)ccc2ccccc12)c1cccs1,5.33%
5,CC(=O)NC1CC2CCCC(C1)N2S(=O)(=O)c1cccc(F)c1 (centres unmarked),8.53%
6,Cc1cc(C)c2c(N=NN3CCOCC3)[nH]nc2n1,4.17%
7,O=C(NCCCN1CCOCC1)c1onc(CSc2nc3ccccc3[nH]2)c1C(=O)NCCCN1CCOCC1,12%
8,O=C(CCC(=O)N1CCN(c2ccc(O)cc2)CC1)c1cccs1,5.69%
9,Cc1cccc(C)c1NC(=O)CN(C)C(=O)c1ccccc1OCc1ccc(F)cc1,10.6%
10,CCN(CC)S(=O)(=O)c1ccc(N2C(=O)Nc3ccccc3N2O)cc1,12.1%
11,CCCc1c(C(=O)N2CCN(c3ccccc3OC)CC2)cnn1-c1ccccc1,10.4%
12,C=CCOC(=O)c1ccc(-n2cnc(C)n2)nc1,7.25%
13,O=C(CN1CCOCC1)Nc1cccc(Cl)c1Cl,-10.5%
14,COC(=O)c1c(N)n(Cc2ccc(OC)cc2)c2nc3ccccc3nc12,1.56%
15,O=C(Nc1cccnc1)C1CCN(S(=O)(=O)c2cccs2)CC1,24.5%
16,COc1ccc(N(CC(=O)N2CCN(Cc3ccccc3)CC2)S(C)(=O)=O)cc1,11.2%
17,Cc1ccc(OCC(=O)NNC(=O)C(=O)N2CCCC2)c(C)c1,4.9%
18,CCCCN1C(=O)C2C(c3ccc(OC)cc3O)NC(CC(C)C)(C(=O)O)C2C1=O (centres unmarked),3.19%
19,CC1CC(C)(C)CC2(C1)NC(=S)N(c1ccccc1)N2 (centres unmarked),11.9%
20,COc1ccc(/C=N/c2c(-c3ccc(OC)cc3)nc3n2CCS3)cc1,12.7%
21,Cc1c(C(=O)c2ccc(F)cc2)c2ccccn2c1CCc1ccccn1,-0.427%
22,CC(=O)c1ccc(N2CCN(c3ncc(C(F)(F)F)cc3Cl)CC2)cc1,14.6%

row,Compound,"hERG current change (%, negative = inhibition) at 1uM"
1,CCOC(=O)c1cccnc1SC(CC)C(=O)N1CCOCC1 (centres unmarked),-11.3%
2,O=C(NN1CC(C(=O)OCc2ccc(Br)cc2)CC1=O)c1ccccc1 (centres unmarked),11.6%
3,Nc1nccc(-c2ccc(-n3cccc3)cc2)n1,11.6%
4,CC1(c2nnc(Cc3ccccc3)o2)CC(c2cccc([N+](=O)[O-])c2)=NO1 (centres unmarked),7.89%
5,O=C1CCc2cc(S(=O)(=O)N3CCC(C(=O)NCc4ccccc4Cl)CC3)ccc2N1,14.7%
6,COC(=O)CN1C(=O)C(C)(C)Oc2ccc(C(=O)Nc3cccc(OC)c3)cc21,17.5%
7,COc1ccc(-c2noc3c2-c2nc(-c4cccc(C)c4)sc2CC3)cc1,7.86%
8,Cc1cccc(NC(=O)CN2CCN(C(=O)CNC(=O)Cc3cccc4ccccc34)CC2)c1C,-14.2%
9,O=S(=O)(c1cccs1)N1CCN(CCOc2ccc(Cl)cc2)CC1,5.87%
10,Oc1ccc(-c2nc3c4c(ncn3n2)-c2ccccc2CC42CCCC2)cc1,12.3%
11,CCC(C)C(NC(N)=O)C(=O)Nc1ccc(C(=O)OC)cc1 (centres unmarked),17.1%
12,CC1(C)CC[C@]2(CO)[C@@H](O)C[C@]3(C)C(=CCC4[C@@]5(C)CC[C@H](O)C(C)(C)C5CC[C@]43C)[C@@H]2C1 (some centres unmarked),14.4%
13,CN(C)CCCN(C(=O)c1ccc(S(=O)(=O)N2CCCCC2)cc1)c1nc2cc3c(cc2s1)OCO3.Cl,-17.7%
14,CCCCOC(=O)c1ccc(NC(=O)c2cnccn2)cc1,18%
15,Cl.O=C(NCCOC(=O)C1COc2ccccc2O1)c1cccnc1 (centres unmarked),6.02%
16,CCOC(=O)c1cc(C)n(Cc2cccc(OC)c2OC)c1C,3.44%
17,CCOC(=O)CSc1nnc(-c2ccoc2C)n1-c1ccc(C)cc1,7.78%
18,CCOCC(=O)Nc1sc2c(c1C(=O)OCC)CCCC2,-7.69%
19,CCS(=O)(=O)N1N=C(c2cccc(NS(C)(=O)=O)c2)CC1c1ccc(C)cc1 (centres unmarked),-18.5%
20,COc1ccc(-c2nnnn2-c2ccc(F)cc2F)cc1,12%

# From paper PMC4336329 (PLoS ONE, 2015)
